# Values joined by “and” are separate entries in the source; they are usually repeats but may differ in a detail not shown here. Equal values may be shown once. The campaign covered roughly 330,000 compounds. About 560 (0.17%) were called active. Inconclusive results, whose numbers are uncertain, are shown with a selection of clear calls. Calls come from the whole dose curve; as a rule, active = well fitted inhibition curve with a large enough effect; inconclusive = small, poorly fitted or top-dose-only effect, or effect the other way; inactive = flat fitted curve, though single readings scatter. Potencies of inconclusive entries are left out as doubtful fits.
# Target: ATP-dependent 6-phosphofructokinase (Trypanosoma brucei brucei) (UniProt O15648)
# Chain of UniProt O15648 (O15648 whole entry, looked up): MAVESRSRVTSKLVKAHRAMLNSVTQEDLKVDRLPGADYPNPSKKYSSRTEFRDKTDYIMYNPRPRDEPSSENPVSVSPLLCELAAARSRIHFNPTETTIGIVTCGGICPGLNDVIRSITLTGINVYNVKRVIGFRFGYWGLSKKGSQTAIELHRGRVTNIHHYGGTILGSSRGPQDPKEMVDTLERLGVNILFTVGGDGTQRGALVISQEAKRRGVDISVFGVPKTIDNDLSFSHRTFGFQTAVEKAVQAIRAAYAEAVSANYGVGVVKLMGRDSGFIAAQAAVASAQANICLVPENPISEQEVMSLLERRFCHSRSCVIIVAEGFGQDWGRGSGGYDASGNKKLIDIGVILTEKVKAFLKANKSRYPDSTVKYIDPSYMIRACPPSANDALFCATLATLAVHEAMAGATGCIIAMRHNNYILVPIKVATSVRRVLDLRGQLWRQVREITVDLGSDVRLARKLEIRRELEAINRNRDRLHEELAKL
# Assay: qHTS Assay to Find Inhibitors of T. brucei phosphofructokinase; note: nearly all actives have a fitted effect of over 60% in size;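 for activity, negative = inhibition: 0% = uninhibited 1x PFK enzyme wells and -100% = no-enzyme wells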
# Details: T. brucei PFK, ADP-Glo luminescence; activity, negative = inhibition: at 57.5 µM (top of the series)
# Outline: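 In TEA buffer at pH 8.0 with 5 mM MgCl2, enzyme (1.25 nM) converted F6P (0.5 mM) and ATP (0.1 mM) for 45 min at room temperature. ADP product was read by luciferase luminescence.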
# Potency is the fitted concentration of half-maximal effect; tags give direction and shape of the fitted curve.
SMILES,"activity, negative = inhibition",Potency
Cc1c(C(=O)c2ccc(F)cc2)c2ccccn2c1CCc1ccccn1,inactive: 0.523%,
CN1CCc2cccc3c2[C@H]1Cc1ccc(O)c(O)c1-3,,active: 9.53 µM and active: 4.26 µM and active: 1.9 µM
COc1cc(-n2nc(C)c3c2OC(N)=C(C#N)C3c2ccccc2)c(Cl)c(Br)c1O (stereo not given),inactive: 1.85%,
Cc1noc(NS(=O)(=O)c2ccc(NC(=O)Nc3ccc(Cl)c(Cl)c3)cc2)c1C,,"inconclusive [falling, partial curve, poor fit]"
Cc1c(C(=O)Nc2nc(-c3ccccn3)cs2)oc2ccccc12,,"inconclusive [falling, partial curve]"
O=C(CSc1nnc2ccc(-c3ccccn3)nn12)Nc1ccccc1F,,"inconclusive [falling, single point]"
Cc1c(CC(=O)N2CCN(C(=O)C3COc4ccccc4O3)CC2)c(=O)oc2c(O)c(O)ccc12 (stereo not given),,active: 4.78 µM
COc1cc2ccccc2cc1C(=O)NCC(c1cccs1)N(C)C (stereo not given),inactive: -1.79%,
CS(=O)(=O)Nc1ccc(C(=O)Nc2ccccc2-c2ccccc2)cc1,inactive: -0.621%,
CCCc1c(C(=O)OCC)sc(N)c1C#N,,"inconclusive [falling, single point]"
CCn1nc(C)cc1-c1nnc(Sc2ncc([N+](=O)[O-])s2)n1C,,"inconclusive [falling, partial curve]"
COc1cccc(C2=N/C(=C\N(C)C)C(=O)O2)c1,inactive: -1.5%,
Cc1nnc2ccc(-c3ccc(NS(C)(=O)=O)cc3)nn12,inactive: 0.996%,
COC(=O)c1ccccc1NC(=S)N(Cc1ccc2c(c1)OCO2)Cc1cc2cccc(C)c2[nH]c1=O,inactive: -16.3%,
CC(=O)Nc1ccc2nc(NC(=O)c3ccc([N+](=O)[O-])o3)sc2c1,inactive: -5.73%,
COC(=O)c1ccc(NC(=O)CSc2nc3cccnc3n2C)cc1,,"inconclusive [falling, partial curve, poor fit]"
O=C(O)CC(NC(=O)C12CC3CC(CC(C3)C1)C2)c1cc([N+](=O)[O-])ccc1Cl (stereo not given),,"inconclusive [falling, single point]"
O=c1cc(-c2ccc(O)cc2)oc2c1ccc1ccccc12,,"inconclusive [falling, single point]"
Cc1ccc(-n2ncc3c(=O)[nH]c(SC(C)C)nc32)cc1,,"inconclusive [falling, single point]"
O=C(c1ccccc1)c1ccc2nc(-c3ccco3)c(-c3ccco3)nc2c1,,"inconclusive [falling, partial curve]"
CCOC(=O)c1ccsc1NC(=O)CCS(=O)(=O)c1ccccc1,,"inconclusive [falling, single point]"
CN(c1ccccc1C(=O)NCc1ccco1)S(C)(=O)=O,,"inconclusive [falling, single point]"
COC(=O)N/N=C/c1cc(Cl)c(OCc2ccc(F)cc2)c(OC)c1,inactive: 4.97%,
O=C(c1ccc(OCC2CCCO2)cc1)N1CCc2ccccc2C1 (stereo not given),inactive: 2.02%,

SMILES,"activity, negative = inhibition",Potency
CSc1nc(Oc2cccc(C(F)(F)F)c2)cc(C(F)(F)F)n1,inactive: 1.66%,
Cc1ccc(S(=O)(=O)Oc2ccccc2/C=N/NC(N)=S)cc1,inactive: -0.519%,
O=C1OCc2cc(NC(=O)C3COc4ccccc4O3)ccc21 (stereo not given),,"inconclusive [falling, single point]"
CCC(=O)Nc1ccccc1Oc1ccccc1,inactive: -0.722%,
CC(NC(=O)c1ccco1)C(c1cccs1)N1CCOCC1 (stereo not given),,"inconclusive [falling, single point]"
CC(C(=O)NCc1ccc(F)cc1)c1ccc([N+](=O)[O-])cc1 (stereo not given),,"inconclusive [falling, single point]"
Cc1cc(N2CCN(C)CC2)nc2ccc(NC(=S)NCCCN3CCc4ccccc4C3)cc12,inactive: -3.75%,
CCC(=O)Nc1ccc(N2CCN(C(=O)c3cccs3)CC2)cc1,,"inconclusive [falling, partial curve, poor fit]"
COCCCn1c(=NC(C)=O)c(C#N)cc2c(=O)n3cccc(C)c3nc21,,"inconclusive [falling, single point]"
Cc1ccc(C2=NC(=O)/C(=C/c3cc(O)c(O)c(Br)c3)S2)cc1,,"inconclusive [activator, partial curve]"
COCCCNC(=O)c1c(N)n(-c2ccccc2)c2nc3ccccc3nc12,,"inconclusive [falling, partial curve, poor fit]"
N#C/C(=C\c1ccc(O)c(O)c1)C(=O)c1ccc(O)c(O)c1,,"inconclusive [falling, full curve]"
COc1ccc(NC(=O)CN2C(=O)S/C(=C/c3cccn3-c3ccc(C(=O)O)cc3)C2=O)cc1,,active: 9.53 µM
CCN(C(=O)CSc1nc2cc(C(=O)OC)ccc2c(=O)n1Cc1ccco1)c1cccc(C)c1,inactive: 2.09%,
O=C(O)c1cc(O)c2c(c1)[C@@H]([C@H]1c3cc(C(=O)O)cc(O)c3C(=O)c3c(O[C@@H]4O[C@H](CO)[C@@H](O)[C@H](O)[C@H]4O)cccc31)c1cccc(O[C@@H]3O[C@H](CO)[C@@H](O)[C@H](O)[C@H]3O)c1C2=O,,"inconclusive [falling, full curve]"
O=C(COC(=O)Cc1ccc(F)cc1)NCc1ccco1,,"inconclusive [falling, single point]"
O=C(NNc1nc2ccccc2s1)Nc1ccc(Cl)c(Cl)c1,,"inconclusive [falling, partial curve]"
O=C(Nc1ccc(Cl)c(Cl)c1)Oc1ccc(NC(=O)c2ccco2)cc1,,active: 13.5 µM
O=c1c2ccccc2ncn1-c1ccc(Cl)cc1[N+](=O)[O-],inactive: -2.63%,
COc1ccc(OC)c(NC(=O)c2cc(-c3cc(C)ccc3O)n[nH]2)c1,,"inconclusive [activator, partial curve]"
O=C1CN(C(=O)CN2C(=O)NC(c3ccccc3)(c3ccccc3)C2=O)c2ccccc2N1,,"inconclusive [falling, single point]"
COC(=O)c1cc(CNC(=O)c2ccc(N3CCCC3)c([N+](=O)[O-])c2)ccc1OC,inactive: 2.31%,
O=C(NCCOc1ccc(F)cc1)C1CCC(=O)N(CCc2ccccn2)C1 (stereo not given),,"inconclusive [falling, single point]"
CC(NC(=O)c1ccco1)C(=O)N1CCN(c2cccc(C(F)(F)F)c2)CC1 (stereo not given),,"inconclusive [falling, partial curve]"

SMILES,"activity, negative = inhibition",Potency
Cn1nc([N+](=O)[O-])nc1S(C)(=O)=O,,"inconclusive [activator, single point]"
COCCN(Cc1cc2ccc(C)c(C)c2nc1Cl)C(=O)N1CCOCC1,inactive: 2.64%,
O=C(NC1CCCC1)C(=O)N(Cc1cccnc1)C(C(=O)NCC1CCCO1)c1ccco1 (stereo not given),,"inconclusive [falling, single point]"
O=C(NCCc1ccco1)c1ccc(OCc2cn3ccccc3n2)cc1,,"inconclusive [falling, partial curve]"
COc1ccc(C2CC(c3ccc(Cl)c(Cl)c3)Nc3nc(N)nn32)cc1 (stereo not given),,"inconclusive [falling, single point]"
OC(CNCc1ccc(Cl)c(Cl)c1)c1ccccc1 (stereo not given),,"inconclusive [falling, partial curve]"
CCOC(=O)CN(C(=O)CSc1nnc(CNc2ccc(F)cc2)o1)c1ccccc1,,active: 23.9 µM
COC(=O)c1c(NC(=O)Cc2cccs2)sc2c1CCCC2,,"inconclusive [falling, partial curve]"
Cc1cccc(C)c1NCc1n[nH]c(=S)n1-c1ccccc1,,"inconclusive [falling, partial curve]"
CCOC(=O)C1C(C(C)=O)=C(c2ccccc2)c2ccccc2N1S(=O)(=O)C(F)(F)F (stereo not given),inactive: 8.94%,
Cn1c(SCC(=O)O)nnc1-c1ccc(NC(=O)c2ccc(Cl)c(Cl)c2)cc1,,"inconclusive [falling, partial curve]"
CC(=O)Nc1ccc(S[C@@H](CCN2CC[C@H](C(C)(C)C)CCC2=O)c2ccccc2)cc1,,"inconclusive [falling, single point]"
O=C(NNC(=O)c1ccccc1[N+](=O)[O-])c1csc(N2CCOCC2)n1,,"inconclusive [falling, single point]"
CCCN(C(=O)C(=O)Nc1ccc2nc3n(c(=O)c2c1)CCCCC3)c1ccc(OCC)cc1,inactive: 9.19%,
COc1ccc(Cl)cc1NC(=O)C1CCN(S(C)(=O)=O)CC1,,"inconclusive [falling, single point]"
CC1CCCCN1CCCNC(=O)C1CCN(c2nnc(-n3cccc3)s2)CC1 (stereo not given),inactive: -7.92%,
C/C(=N\NC(=O)C(C)Nc1cccc(Cl)c1)c1ccc([N+](=O)[O-])cc1 (stereo not given),,"inconclusive [falling, partial curve]"
Cc1cc(N/N=C/c2ccc(O)cc2)nc(NS(=O)(=O)c2ccccc2)n1,,"inconclusive [falling, partial curve]"
O=C(CCN1CCN(Cc2ccccc2)CC1)NNC(=O)Cc1ccc(Cl)c(Cl)c1,,active: 16.9 µM
O=C(c1coc(=O)c(Br)c1)N1CCCc2ccccc21,,"inconclusive [falling, single point]"
CCCn1c(SCC(=O)NCc2ccc(C)cc2)n[nH]c1=O,inactive: -0.882%,
Cc1oc(-c2ccc(F)cc2)cc1-c1nn2c(-c3ccoc3C)nnc2s1,,"inconclusive [falling, partial curve]"

# Reference: PubChem BioAssay AID485367 (National Center for Advancing Translational Sciences (NCATS), 2010)
